{"source": "PubChem BioAssay AID1508642", "about": "(National Center for Advancing Translational Sciences (NCATS), 2021)", "note": "About 200 (0.47%) of roughly 43,000 compounds were called active. Inconclusive means that the source gave no clear call. Such entries were picked first, then a sample of the others. Calls follow the shape of the dose curve; as a rule, active = well fitted cell-killing curve with a large enough effect; inconclusive = small, poorly fitted or top-dose-only effect, or effect the other way; inactive = flat fitted curve, though single readings scatter. Potencies beside an inconclusive call are fits to weak or partial responses and may not hold up. % is scaled to controls: 0 for no effect and ±100 for the full control effect; potency is read from the fitted curve at half-maximal effect; tags tell the direction and shape of the fitted curve.", "data": [{"test": "Cell viability qHTS assay in S16 Pmp22-F2sN cells; also: nearly all actives have a fitted effect of over 65% in size", "conditions": "S16 Pmp22-F2sN Schwann cells (luciferase reporters placed in the Pmp22 gene) viability, CellTiter-Glo, 24 h; activity change, negative = cytotoxicity: at 57.5 µM (top of the series)", "procedure,_shortened": "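Rat S16 Schwann reporter line, 24 h treatment with library compounds delivered at 23 nL per well. Cell viability by CellTiter-Glo luminescence.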", "values": [{"compound": "COC(=O)c1nnn(-c2cccc(C)c2)c1C(=O)OC", "activity change, negative = cytotoxicity": "inactive: -8.23%"}, {"compound": "CCOc1ccccc1C(=O)Nc1ccc2nc(N(CC)CC)cc(C)c2c1", "Potency": "inconclusive: 3.16 µM [rising, full curve]"}, {"compound": "CCCCc1ccc(NC(=O)c2cc3c(=O)n4ccccc4nc3s2)cc1", "activity change, negative = cytotoxicity": "inactive: 10%"}, {"compound": "CSc1cccc(NC(=O)CN2C(=O)COc3ccc(Cl)cc32)c1", "Potency": "inconclusive: 39.8 µM [cytotoxic, single point]"}, {"compound": "COc1ccc(NC(=O)COc2ccc(-c3nn(C)c(=O)c4ccccc34)cc2)cc1", "Potency": "inconclusive: 39.8 µM [rising, partial curve, poor fit]"}, {"compound": "O=C(NCC1CCN(Cc2cccc(Cl)c2)CC1)Nc1cc(Cl)ccc1Cl", "Potency": "inconclusive: 31.6 µM [cytotoxic, single point]"}, {"compound": "CC(C)(C)OC(=O)N1CCC(c2c(C(=O)N3CCC(c4ccccc4)C3)cnn2-c2cccc(Cl)c2)CC1", "note": "(configuration not stated)", "Potency": "inconclusive: 35.5 µM [cytotoxic, single point]"}, {"compound": "CCCCCS(=O)(=O)c1oc(-c2cccs2)nc1S(=O)(=O)c1ccc(C)cc1", "Potency": "inconclusive: 39.8 µM [cytotoxic, single point]"}, {"compound": "CN1C(=O)c2ccccc2Sc2ccc(NC(=O)c3ccccc3F)cc21", "Potency": "inconclusive: 25.1 µM [cytotoxic, single point]"}, {"compound": "Cc1nc2cccnc2n1-c1cccc(C(=O)N2CCN(c3ccc(Cl)cc3)CC2)c1", "Potency": "inconclusive: 17.8 µM [cytotoxic, partial curve, poor fit]"}, {"compound": "Cc1csc2nc(-c3cccc(NC(=O)C(C)C)c3)cn12", "Potency": "inconclusive: 17.8 µM [rising, partial curve, poor fit]"}, {"compound": "Cc1ccc(C)c(CN2C(=O)C(=O)c3ccccc32)c1", "Potency": "inconclusive: 3.98 µM [cytotoxic, full curve, poor fit]"}, {"compound": "COc1ccccc1NC(=O)c1c(NCc2ccc(OC)c(OC)c2OC)sc2c1CCCC2", "Potency": "inconclusive: 39.8 µM [cytotoxic, single point]"}, {"compound": "COc1cccc(NC(=O)Nc2cccc(-c3cn4cccnc4n3)c2)c1", "Potency": "inconclusive: 11.2 µM [rising, partial curve, poor fit]"}, {"compound": "CCc1ccc(CN(Cc2cn[nH]c2-c2ccc(OC)cc2)C(=O)Nc2cc(Cl)ccc2OC)cc1", "Potency": "inconclusive: 39.8 µM [cytotoxic, single point]"}, {"compound": "CCCCN(CCCNC(=O)c1cc(Nc2ccc(OC)c(OC)c2)nc2ccccc12)Cc1ccccc1", "Potency": "inconclusive: 39.8 µM [cytotoxic, single point]"}, {"compound": "COc1ccc(S(=O)(=O)NCCc2csc(-c3ccc(F)cc3)n2)cc1F", "Potency": "inconclusive: 15.8 µM [cytotoxic, partial curve, poor fit]"}, {"compound": "CCOC(=O)C1CCN(C(c2cccc(F)c2)c2c(O)cc(C)n(CCOC)c2=O)CC1", "note": "(configuration not stated)", "activity change, negative = cytotoxicity": "inactive: 2.72%"}, {"compound": "CCOC(=O)c1c(C)[nH]c(C)c1S(=O)(=O)N1CCCC(C(=O)N2CCN(c3cccc(C)c3C)CC2)C1", "note": "(configuration not stated)", "Potency": "inconclusive: 31.6 µM [cytotoxic, single point]"}, {"compound": "O=C(Nc1ccc2c(c1)CCCN2C(=O)c1cccs1)c1ccccc1Cl", "Potency": "inconclusive: 14.1 µM [cytotoxic, partial curve, poor fit]"}, {"compound": "Cc1cccc(-c2nnc(C3CCN(S(=O)(=O)c4cccc(Cl)c4)CC3)o2)c1", "Potency": "inconclusive: 39.8 µM [cytotoxic, single point]"}, {"compound": "COc1cc(C2NC(=O)c3c(sc4c3CCN(C)C4)N2)cc(OC)c1OC", "note": "(configuration not stated)", "Potency": "inconclusive: 39.8 µM [cytotoxic, single point]"}, {"compound": "COc1ccc(Br)cc1CN1C(=O)c2ccccc2C1C(=O)NC1CCCCCC1", "note": "(configuration not stated)", "activity change, negative = cytotoxicity": "inactive: -6.42%"}, {"compound": "CCOC(=O)C1CCN(S(=O)(=O)c2ccc3c(c2)N(C)C(=O)CC(=O)N3C)CC1", "activity change, negative = cytotoxicity": "inactive: 9.53%"}, {"compound": "COc1ccc(-c2cc(C(C)=O)c(C)n2CCC(=O)Nc2cc(Cl)ccc2C)cc1", "activity change, negative = cytotoxicity": "inactive: 0.11%"}, {"compound": "CCOC(=O)c1c(C)[nH]c(C)c1S(=O)(=O)N(C)CC(=O)Nc1ccc(C)cc1C", "Potency": "inconclusive: 2.51 µM [cytotoxic, partial curve, poor fit]"}, {"compound": "Cc1cc(=O)n(CC(=O)N2CCN(c3ccccc3F)CC2)c2c1c(C)nn2C", "activity change, negative = cytotoxicity": "inactive: -4.79%"}, {"compound": "CN(Cc1ccccc1)C(=O)c1ccc2c(c1)N(Cc1ccccc1Cl)C(=O)c1ccccc1S2", "Potency": "inconclusive: 39.8 µM [cytotoxic, partial curve, poor fit]"}, {"compound": "Cc1ccc(Cl)cc1N1CCN(C(=O)c2ccc3c(c2)N(Cc2ccc(F)cc2)CCS3)CC1", "Potency": "inconclusive: 14.1 µM [cytotoxic, partial curve, poor fit]"}, {"compound": "CCOC(=O)c1cccc(NC(=O)CCn2c(-c3ccc(F)cc3)cc(C(=O)OCC)c2C)c1", "Potency": "inconclusive: 25.1 µM [cytotoxic, single point]"}, {"compound": "COc1ccc2c(Sc3ccccc3)c(C(=O)NCCCN3CCCCC3)[nH]c2c1", "Potency": "inconclusive: 39.8 µM [cytotoxic, single point]"}, {"compound": "O=C(CCC1N=C2c3ccccc3N=C(SCc3ccccc3F)N2C1=O)NCCc1ccccc1", "note": "(configuration not stated)", "activity change, negative = cytotoxicity": "inactive: 4.72%"}, {"compound": "COc1ccccc1CNC(=O)Cc1csc2nc(-c3ccccc3)cn12", "activity change, negative = cytotoxicity": "inactive: -4.2%"}, {"compound": "CCc1ccccc1N(C)C(=O)c1cn(-c2cccc(OC)c2)c(=O)c2ccccc12", "activity change, negative = cytotoxicity": "inactive: -3.72%"}, {"compound": "CN(C)c1ccc(C2C=C(c3ccccc3)Nc3nnnn32)cc1", "note": "(configuration not stated)", "activity change, negative = cytotoxicity": "inactive: -1.87%"}, {"compound": "COc1ccc(/C=C/C(=O)Nc2sc(C)c(C)c2C(=O)O)cc1", "activity change, negative = cytotoxicity": "inactive: -7.57%"}, {"compound": "CCn1c(=O)sc2cc(NS(=O)(=O)c3ccc(C)cc3)ccc21", "Potency": "inconclusive: 10 µM [cytotoxic, partial curve, poor fit]"}, {"compound": "CCCN1C(C(=O)c2ccccc2)=C(OC(=O)c2ccc(OC)cc2)c2ccccc2S1(=O)=O", "activity change, negative = cytotoxicity": "inactive: -14.9%"}, {"compound": "Cn1nnnc1SCCCNCc1ccc(-c2ccc(F)c(Cl)c2)o1", "activity change, negative = cytotoxicity": "inactive: -6.65%"}, {"compound": "CN(Cc1ccc(F)cc1)S(=O)(=O)c1nnc(NC(=O)c2ccccc2Cl)s1", "activity change, negative = cytotoxicity": "inactive: -1.72%"}, {"compound": "Cc1cc(C)cc(NS(=O)(=O)c2ccc(N3CCCCS3(=O)=O)cc2)c1", "Potency": "inconclusive: 14.1 µM [cytotoxic, partial curve]"}, {"compound": "CCc1ccc(NC(=O)CN2C(=O)CCSc3ccccc32)cc1", "activity change, negative = cytotoxicity": "inactive: 6.41%"}]}]}
